In the supplement of paper PMC3334620:
Whole data set: some 33,000 sequences, median “E-score (-0.5 to 0.5)” near -0.017, cut for the highest 2% near 0.3. This is one part of the list.

Target: T1, Sut1 (UniProt P53032)
T1 sequence: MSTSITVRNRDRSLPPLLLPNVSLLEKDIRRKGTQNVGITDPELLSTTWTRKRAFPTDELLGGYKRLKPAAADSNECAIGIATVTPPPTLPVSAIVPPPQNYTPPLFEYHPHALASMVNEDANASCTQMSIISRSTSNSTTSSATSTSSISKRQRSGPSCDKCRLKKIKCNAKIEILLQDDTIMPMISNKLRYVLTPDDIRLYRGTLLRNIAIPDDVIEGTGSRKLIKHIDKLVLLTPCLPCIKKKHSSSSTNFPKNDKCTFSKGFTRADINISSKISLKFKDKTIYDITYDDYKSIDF
Experiment: PBM E-score (8-mer binding enrichment) (E-score (-0.5 to 0.5)); higher = stronger / more preferred TF binding; most listed sequences are background and not binding sites
Details: protein concentration: 200 nM; construct: GST-full length
Summary of the method: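 Universal all-10-mer Agilent arrays, double-stranded by primer extension on fresh or once-stripped slides, were probed with about 100-200 nM GST-tagged yeast transcription factors made by PURExpress. Fluorescent anti-GST detected bound protein, and masliner normalised the scans. E-scores from the Universal PBM Analysis Suite were given to each ungapped eight-base word pooled with its reverse complement.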

Row | Sequence | PBM E-score
1 | AGCCGCTG | -0.166
2 | CACCTTCA | -0.107
3 | ACCCGTGA | -0.134
4 | ACGGAGTG | 0.42
5 | AGCGCCAT | -0.311
6 | CAAGTACC | -0.025
7 | AGGTCGGC | -0.131
8 | AACTCTAG | -0.0347
9 | AGATCCCT | -0.102
10 | CTCCTCGC | -0.277
11 | ATATGCGG | 0.0987
12 | AGCCGCTC | -0.0222
13 | CCCTTCAA | -0.068
14 | AAACTCGT | 0.0914
15 | AAATCGGT | 0.0195
16 | TAGGAGAA | -0.0909
17 | ACTCGAGC | -0.154
18 | TATGTGGA | 0.212
19 | ATGACCGG | 0.00977
20 | GATTCTCC | 0.162
21 | AGTATTTC | 0.206
22 | CCCCTGAC | -0.23
23 | AGCAGGAC | -0.0558
24 | GTGGATTA | 0.0983
25 | CACTCAGA | -0.114

Row | Sequence | PBM E-score
26 | CAGTTAGC | -0.11
27 | AACGATCA | 0.0789
28 | AAACTGAG | 0.0712
29 | GTGGCCGA | -0.093
30 | ACTAGGAT | 0.0557
31 | CCCGTACC | -0.0545
32 | AAGGGGAA | -0.226
33 | ATAAGCGG | -0.134
34 | AATCTGGG | -0.0872
35 | GCACCCAC | -0.155
36 | AACAGACT | 0.0447
37 | AGCTAGGA | -0.186
38 | CCCCGAAC | 0.0945
39 | CAGTGGTA | -0.0944
40 | AGTAGAAG | 0.0396
41 | AAGACAGT | -0.125
42 | ACAGGGGC | -0.3
43 | AAAGCTAC | -0.144
44 | CACCAACG | -0.128
45 | CTCCTCTA | -0.154
46 | CCCCCGCG | -0.0782
47 | CAGCAAAA | 0.0136
48 | GCATTCGA | 0.0434
49 | TCGTCTCA | -0.112
50 | CTCTTACC | 0.0992

Row | Sequence | PBM E-score
51 | AGCAGCCT | -0.104
52 | AAATTTCG | 0.196
53 | GGGTAAAA | 0.173
54 | CCGTAAAA | 0.169
55 | CTTGCCCA | -0.0298
56 | GACGGAAA | 0.194
57 | ACACGGGG | -0.0866
58 | AGGAAACC | -0.071
59 | AGTCAGTG | -0.213
60 | AATGAGAG | -0.0825
61 | AACACTGT | -0.0434
62 | CCGCGGAC | 0.274
63 | ATTGGCCC | -0.289
64 | CACCAGCG | -0.144
65 | AACTTAAA | 0.266
66 | ATACTACA | 0.147
67 | AACGTTTC | -0.0394
68 | CGCAGAAA | 0.0491
69 | GGTAGTGA | -0.0509
70 | GGACGACA | 0.149
71 | CAGTAAAG | -0.0703
72 | CTCATGAG | -0.0517
73 | GAACTAGC | -0.0235
74 | CCATAAGA | -0.0704
75 | GCTTCAGA | -0.0195

Row | Sequence | PBM E-score
76 | ATCCAAAA | 0.178
77 | GGTTTACA | 0.0694
78 | AGCGGGGC | -0.235
79 | ACCATACG | 0.0284
80 | AGCGAATG | -0.127
81 | AAGGCCTG | -0.183
82 | ATTAGCTG | -0.16
83 | AGTAACGC | 0.0355
84 | AAACATGC | -0.0558
85 | TAATTACA | 0.193
86 | AAAGTTTA | 0.203
87 | GATGAAAC | 0.14
88 | CGGGCGCA | -0.206
89 | ATCGAAAA | 0.152
90 | AACCTTCC | -0.189
91 | CTGAAATA | 0.121
92 | GCGTCACC | -0.296
93 | CAGAAACG | -0.0454
94 | AGACCGTC | -0.0226
95 | CCTCCGCG | -0.0947
96 | AAAGTACC | 0.044
97 | TATAGAAA | 0.217
98 | ATAGCCAC | 0.0314
99 | CCGATGTA | 0.0524
100 | CTTCTACC | -0.116

Row | Sequence | PBM E-score
101 | ACATAGGC | 0.0255
102 | CTGCGGCC | -0.21
103 | CTGCGGGC | -0.0258
104 | ACTATAGT | 0.254
105 | AATATCAG | 0.0528
106 | GTTCGCAA | 0.124
107 | CAGTCGTA | -0.00825
108 | GGCCCCCC | -0.289
109 | GAAATAGA | 0.164
110 | GTCTCGCA | -0.159
111 | GAAGTACC | -0.0675
112 | ACAACACC | 0.0788
113 | AATCGGGT | 0.132
114 | CTTAAAAC | 0.238
115 | CGCTAGAC | -0.0914
116 | CGCCGGCG | 0.375
117 | CATTAAAG | 0.111
118 | CAAGCAGG | -0.127
119 | AATCTGAA | 0.165
120 | ACGGCCAA | 0.0686
121 | CGTCTCGC | -0.184
122 | AGCAACTC | 0.065
123 | CTCCGTTC | 0.32
124 | TAGCATCA | -0.0462
125 | TCCCAAAA | 0.108

Row | Sequence | PBM E-score
126 | GCATCAGC | -0.144
127 | AATCTAGC | -0.181
128 | CACAGACC | -0.148
129 | CACATAGA | -0.0784
130 | CACTCTCA | -0.0711
131 | GAAATTAA | 0.333
132 | GGCGTGGA | -0.197
133 | ACAGATCA | 0.115
134 | TCATAACA | 0.0613
135 | CCTTACGA | -0.0994
136 | ATCTCTAA | 0.114
137 | AGAACCCG | -0.162
138 | TAAAATTA | 0.34
139 | ATTTATCC | 0.33
140 | CGATACCC | -0.211
141 | AATAACGA | 0.15
142 | AGTGTTCG | 0.0213
143 | ATACACGA | 0.094
144 | AAGGTCCT | -0.239
145 | AGACAGGC | -0.1
146 | CATACATA | 0.121
147 | AATCGAGT | 0.00417
148 | ATAATAGA | 0.244
149 | GATGTTTA | 0.04
150 | CGACCACC | -0.234

Row | Sequence | PBM E-score
151 | AATTGAAT | 0.314
152 | CCACCACC | -0.143
153 | ATCCGCGG | 0.032
154 | CGTGCACG | -0.0955
155 | GTGACCCA | -0.197
156 | CTACCACC | -0.163
157 | CGGTAAAG | 0.167
158 | GATCGCAC | -0.176
159 | ACTCAAGC | -0.0122
160 | ACGATCTA | -0.0789
161 | CTGGACCC | -0.279
162 | ACTGGTCG | -0.199
163 | GACAGCAA | -0.0376
164 | ACGGATGG | -0.0438
165 | CATTGCCC | -0.303
166 | ATGTTAAA | 0.263
167 | AGTAATCC | 0.0763
168 | AGGGCGAG | -0.332
169 | GCCTCATA | -0.0633
170 | ACGAGGGC | -0.233
171 | CCCTGATA | -0.16
172 | GAAGAGTC | -0.0764
